Reference: the supplement of paper PMC11383711
The other results are listed elsewhere or left out. Binding of human antibodies (heavy:light variable regions, tested as scFv in one mRNA-display pool) to influenza hemagglutinin, with or without the stem antibody CR9114 bound first. Score = (mean enrichment − median) / interquartile range of that screen; higher = more enriched, 0 = typical non-binder. Active = above the paper's cut-off per screen: stems 28; unblocked H1 Solomon Islands 5, H1 Michigan 3, H3 5, H5 19, H7 2.85, both B 5; blocked 9, 7, H5 10, H7 10, B Phuket 10, B Lee 11.5. Scores are scaled within each screen and are no affinities; replicates correlate at about 0.6 to 0.9, and antibodies rare in the pool are noisier.

B1: 01.z.01 (protein)
chain 1: QVQLQESGPGLVKPSQTLSLTCTVSGGSITNDDSYWSWIRQTPGKGLEWIGYIFHSGNTYYNPSLKSRVTISVDTSKNQFSLEVTSVTAADTAVYYCARDTGVIKDEYFYYYGLDVWGQGTTVTVSS
chain 2: EIVMTQSPATLSVSPGERATLSCRAGQSVNTNLAWFQQKPGQAPRLLIYGASTRATGIPARFSGSGSGTEFTLTISSLQSEDCAVYYCQQYNQWPLNTFGQGTKLEIK
B2: antibody 4F05 (protein)
chain 1: VQLQQWGAGVWRPSETLSLTCGVSGGSFNGNYWTWIRQSPGKGLEWMGEVDDNGRTNYNPSLTGRVSMSVDTTKKQFSLNLTSMTAADTAVYYCARRGSGSRLVRADYYIDVWGQGTTVTVSS
chain 2: EIVLTQSPGILSLSPGERATLSCRASQTVGSSYLAWYQQRPGQPPRLLIFGSSTRATGVPDRFSGSGSGTDFTLTISRLEPEDFAVYYCQRYGPSPRFTFGPGTKVDIK
B3: AG10-3A02 (protein)
chain 1: VQLVESGGGLVQPGGSLRLSCLGSGFTFSRYSMNWVRQAPGKGLEWVSYISDSSRTIYYADSVKGRFTIFRDNAKNSLYLQMNSLRDEDTAVYYCARDPDTAHDRYFDSWGQGTLVTVSS
chain 2: DIQLTQSPSFLSASVGDRVTITCRASQVIGSYFAWYQQKPGKAPKLLIYATSTLQSGVPSRFSGSGSGTEFTLTISGLQPEDFATYYCQQLNTYPPITFGPGTKVDIK
B4: C6-G03 (protein)
chain 1: VQLVESGGGLVQPGRSLRLSCAASGFSFDDFAMHWVRQAPGKGLEWVSGVTWNSGSRDYADSVKGRFTISRDNDKNSLSLQMNSLRPEDTAVYYCVKGRGGVYTGYGPRYLDYWGQGTLVTVS
chain 2: DIQMTQSPTSLSASVGDRVSITCRASQSVITYLHWYQQKPGKAPKLLISAASSLQSGVSSRFSGSGSGTDFTLTISSLQPEDYATYYCQQSYSSPRTFGPGTKVDIK
B5: R95-2A08 (protein)
chain 1: EVQLVESGGGLVQPGGSLRLSCAASGFIVNKNHMNWVRQAPGKGLEWVSVIYSGGNPYHADSVEGRFTISRDISKNTVHLQMNSLGAEDTAVYYCARDGGGWYVNDAFDIWGQGTTVTVSS
chain 2: QSALTQPASVSGSPGQSITISCTGTSSDIGGYNYVSWYQQHPGKAPKLIIFEVTTRPSGISNRFSGSKSGNTASLTISGLQAEDEADYYCSSYRSTTDVLFGGGTKVTVL
B6: K77-2G11 (protein)
chain 1: QMHLQESGPGLVKPSQTLSLTCSVSGGSINNGGYYWSWVRQHPGKGLEWVGYVYHSGNTYYNPSLKSRISMSVDTSNNRFSLKLNPVTAADTAVYFCARVGLTHYDVLTAYYSGYSDTWGQGTLVTVSS
chain 2: DIQMTQSPSSVSASVGDRVTITCRASQDIATWLAWYQQKPVGPPKLLIHGASTLGSGVPSRFSGSGSGTDFTLTISGLQPGDFATYFCQQAYSLPITFGQGTRL
B7: antibody 1B02 (protein)
chain 1: VQLLESGGGLVPPGGSLRLSCAASGLSFSSYSMSWVRQAPGKGLEWVSAIGGLHGSTYYADFVEGRFTISRDNSRDTVFLQMNYLRAEDTALYYCASDLDGDDGTWFDNWGQGTLVTVSS
chain 2: EIVMTQSPATLSVSPGERATLSCRASQSVSTNLTWYQQKPGQAPRLLIYGASTRASGIPASFSGGGSGTEFTLTISSLQSEDFAVYFCQQYNDWPPTFGQGTKVEIK
B8: C7-3-A05 (protein)
chain 1: VQLVQSGAEVKKPGPGASVKVSCKASGDSFTNYYMHWVRQAPGQGLEWMGMINPNGGNVTYAQNFQDRVTMTIDTSTSTVYMELSSLRSEDTAVYFCVRVFEEQWLAYWGQGTLVTVSS
chain 2: EIVLTQSPATLSLSPGERATLSCRASQSVRNYLAWYQQKPGQAPRLLIYDASNRATGIPARFSGSGSGTDFTLTISSLEPEDSAVYYCQQRFNGLCSFGQGTKVEIK
B9: K77-1B08 (protein)
chain 1: EVQLVQSGAEVKKPGESLKISCKGFGFSFTNYWIGWVRQMPGKGLDWMGIIYPGDSDPRYSPSFQGQVTISADKSLSTAFLQWNSLKASDTAMYYCASNILNYRKNWYLGGAFDIWGQGTMVTVSS
chain 2: QSALTQPPSASGTPGQGITISCSGRSSNIGSNTVNWYQQLPGTAPKLLIYTNDQRPSGVPDRFSGSRSGTSASLAISGLQSGDESDYYCATWDDSLNAYVFGTGTKVTVL
B10: R95-1C09 (protein)
chain 1: LVQLQESGPGLVKPSETLSLTCTVSGDSVTDYYWSWIRQPPGKGLEWIGYIYYSGITNYNPSLKSRVTMSVDTSKNQISLKLTSVIAADTAVYYCARDGRLFDIWGQGTMVAVSS
chain 2: EIVLTQSPGTLSLSPGERATLSCRASQHVSSSYLAWYQQKPGQAPRLLIYDASSRATGIPDRFSGSGSGTDFTLTISRLEPEDFAVYYCQQYGSSHGWTFGQGTKVEVK
B11: AG9-4A02 (protein)
chain 1: VQLVESGGGWVKPGGSLRLSCEASGFKFSDHYMAWIRQAPGKGLEWISYISDNGKTEYYADSVRGRFTVSRDNGQYFLYLEMNNVRVEDTAVYYCAREPGQWLEGWFDPWGQGTLVTVSS
chain 2: DIVMTQSPLSLRVTPGEPASISCKSSQSLLHGNGYNYLDWYLQRPGQSPQLLIYLGSNRASGVPDRFSGSGSGTDFTLKISRVEAEDVGVYYCMQALHTPPWTFGQGTKVEIK
B12: R95-1A03 (protein)
chain 1: EVQLVESGGGLIQPGGSLRLSCAASGFTVSINYMSWVRQAPGKGLEWVSVIYTGGETYYADSVKGRFTISRDNSKNTLYLQMNSLRAEDTAVYYCARDGPPGDGSLDYWGQGTLVTVSS
chain 2: SYELTQPPSVSVAPGQTARITCGGNNIGSKSVHWYQQKPGQAPVLVVYDDSDRPSGIPERFSGSNSGNTATLTISRVEAGDEADYYCQVWDSFSDVVFGGGTKLTVL
B13: 236-14-IgG-1F03 (protein)
chain 1: QVQLVESGGGVVQPGRSLRLSCAAFGFTFSSFPMHWVRQAPGKGLEWVAVISYDGSNKYYADSVKGRFTISRDNSKNTLYVQMNSLRAEDTAVYYCSRDQGGDYGDYGGGFDYWGQGTLVTVSS
chain 2: QSVLTQPPSASGTPGQRVTISCSGSSSNIASNTVNWYQQVPGTAPKLLIYSNDVRPSGVPDRFSGSKSGTSASLAISGLQSEDEADHYCAVWDDSLNAYVFGTGTKVTVL
B14: W85-3B09 (protein)
chain 1: EVQLLESGGGLVQPGGSLRLSCAASGFTFSDYAMSWVRQAPGKGLEWVAILSGSSGHTYYPDSVKGRFTISRDNSKNTLYLQLTSLRAEDTAVYYCAKGGGQQPTWDGMDVWGQGTTVTVSS
chain 2: DIQMTQSPSTLSASVGDKVTITCRASQSINRWLAWYQQKPGKAPKLLIYRASSLESGVPSRFSGSGSGTEFTLTISSLQPDDFATYFCQHYEGYSWTFGQGTKVDIK
B15: AG11-2C03 (protein)
chain 1: VQLQESGPGLVKPSETLSLTCRVSGGSIDGDTYYWGWVRQPPGKGPEWIGSMSPNGITYYGPSLKSRVTMSVDSSLKSFSLRMTSVTTTDTAVYYCARDRDIVSRGGFDNWGRGTLVTVSS
chain 2: DIQMTQSPSSLSASVGDRVTITCRASQSISHFLNWYQHRPGQAPKLLIYLASTLHSGVPSRFSGSGSGTYFTLTISGLQPEDFATYYCQQSYSNDPYTFGQGTKVEIK
B16: C2-3-D06 (protein)
chain 1: VQLQESGPGLVKPSETLSLTCTVSADSISSYFWTWIRQPPGKGLEWIGYIYYSGSTNYNPSLKSRVTISLDTSKRLLSLKLSSVTAADTAVYYCARDSTVFPRIFDSWGQGTLVTVSS
chain 2: IVMTQSPGTLSVSPGERATLSCRASQSVGSSFLAWYQQKLGQAPRLLIYGVSSRATGVPDRFSGSGSGTDFTLTISRLEPEDFAVYYCQQCGSSPWTFGQGTKVEIK
B17: C3-2-3C01 (protein)
chain 1: VQLLESGGGLVQPGGSLRLSCAASGFTLSSNAMAWVRQVPGKGLQWVSGIGGIGGSTYYADSVKGRFTMSRDNSRNTLYLQMNSLRVEDTAVYYCAKGVGRIFMVRGFYFDYWGQGALVTVSS
chain 2: DIQMTQSPSPLSASVGDRVTITCRASQSITSYLNWYQQRPGKAPKLLIYAASNLQTGVPSRFSGSGSGTDFTLTISSLQPEDFATYYCQQSYSTPHTFGPGTKVDIK
B18: K77-1G05 (protein)
chain 1: EVQLVESGGGVVQPGRSLRLSCAASGFTFSSYSLDWVRQAPGKGLEWVAVISYDGSDKYFADSVKGRFTISRDNSKNTLYLQMNSLRAEDTAVYYCARDSTGYYSFDYWGQGTLVTVSS
chain 2: QSALTQPASVSGSPGQSITISCTGTSGDVGNYDLVSWYQHHPGKAPKLMIYEGSERPSGVSNRFSGSKSGNTASLTISGLQAEDEADYYCCSYARGGTGVFGTGTKVTVL
B19: 014-10-3C04 (protein)
chain 1: QVQLVESGGGVVRPGRSQSLSCAASGFTITPYTMFWVRQAPGKGLEWVAMILYDGSSTDYAGPVKGRFTISRDNSKNTLNLQMNSLRAADTAVYYCARGYGSGKSHYYFDYWGQGTLVTVSS
chain 2: EIVLTQSPGTLSLSPGERATLSCRASQSVSSFYLAWYQQKPGQAPRLLLYGTSNRATGIPDRFSGSGSGTDFTLTISRLEPEDFAVYYCQQYDTSLTFGPGTKVDIK

Target: H1 HA stem construct (mini-HA #4900)
Assay: mRNA display binding score; higher = more enriched on the antigen
Details: antigen blocked with: nothing
Protocol: (§1)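 A pool of natively paired antibodies, displayed as scFv on mRNA, was selected once on antigen-coated beads and sequenced before and after; two replicates.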

mRNA display binding score, inactive:
B1 0.184
B2 0.342
B3 0.285
B4 0.572
B5 -0.277
B6 0.0612
B7 0.301
B8 0.499
B9 0.0538
B10 0.000898
B11 0.169
B12 -0.738
B13 -0.519
B14 -0.123
B15 4.6
B16 0.499
B17 -0.243
B18 -1.17
B19 -1.07

Target: H3 HA stem construct (H3ssF)
Assay: as above
Details: antigen blocked with: nothing
Protocol: as §1

mRNA display binding score, inactive:
B1 0.454
B2 -0.213
B3 -0.239
B4 -0.0673
B5 0.903
B6 0.0111
B7 -0.147
B8 0.743
B9 1.14
B10 -0.154
B11 -0.185
B12 -0.375
B13 -0.566
B14 -0.293
B15 13.7
B16 -0.214
B17 -0.628
B18 -0.885
B19 -0.459
